These results are taken from PubChem BioAssay AID1159614 (National Center for Advancing Translational Sciences (NCATS), 2016).

Each structure is given as a SMILES string. Among all 45,000 compounds or so, about 65 (0.1%) were called active. The call rests on the fitted dose curve; in most records, active means well fitted activation curve with a large enough effect; inconclusive means small, poorly fitted or top-dose-only effect; inactive means no such curve, though single readings can be large or run the other way. This is one part of the list.

This assay has as its target Galactocerebrosidase (Homo sapiens) (UniProt P54803). As to the kind of experiment: A Novel Cell-Based Assay to Identify Small Molecules for B -Galactocerebrosidase. Further: 0% is about no effect; nearly all actives have a fitted effect of over 65% in size. The note with it: 145M-Twi-hGALC-G270D cells (Twitcher mouse brain line with human GALC G270D), HMU-beta-Gal fluorescence, 48 h; series mostly up to 57.5 µM; activation: at the top concentration. An outline of the steps: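 Live 145M-Twi cells (Twitcher mouse brain-derived, GALC-null) stably expressing human GALC-G270D, with a wild-type GALC line, were compound-treated. Residual GALC activity was then read as fluorescence from 0.1 mM final HMU-β-gal at pH 5.2; higher signal means activation.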
UniProt P54803, sequence (P54803 whole entry, looked up): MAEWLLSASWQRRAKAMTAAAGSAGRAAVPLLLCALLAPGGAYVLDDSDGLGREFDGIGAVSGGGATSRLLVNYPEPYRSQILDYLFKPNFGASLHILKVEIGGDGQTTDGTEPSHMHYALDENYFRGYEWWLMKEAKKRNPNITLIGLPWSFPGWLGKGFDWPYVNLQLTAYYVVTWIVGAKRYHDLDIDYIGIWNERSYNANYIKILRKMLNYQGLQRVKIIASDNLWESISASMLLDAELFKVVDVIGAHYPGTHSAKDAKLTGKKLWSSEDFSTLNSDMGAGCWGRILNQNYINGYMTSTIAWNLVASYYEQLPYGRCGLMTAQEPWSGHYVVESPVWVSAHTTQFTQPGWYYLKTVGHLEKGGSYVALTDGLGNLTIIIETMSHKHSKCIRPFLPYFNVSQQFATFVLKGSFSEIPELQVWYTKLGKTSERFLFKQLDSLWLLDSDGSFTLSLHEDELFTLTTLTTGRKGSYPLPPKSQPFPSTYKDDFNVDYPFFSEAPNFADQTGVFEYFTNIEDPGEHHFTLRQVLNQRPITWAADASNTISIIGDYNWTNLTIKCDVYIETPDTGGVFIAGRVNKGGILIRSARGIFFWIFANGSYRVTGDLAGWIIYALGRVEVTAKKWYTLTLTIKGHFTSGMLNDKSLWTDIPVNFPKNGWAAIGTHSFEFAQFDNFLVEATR
Take `CCc1ccccc1NC(=O)CCCSc1nc(-c2ccco2)cc(C(F)(F)F)n1`: the “activation” value was inactive: -11.2%.

`COc1ccc(NC(=O)C2=CC(c3ccco3)=NS(=O)(=O)N2C)cc1OC`: the “activation” value was inactive: -1.12%.

As for `O=C1CC(c2c(Cl)cccc2Cl)c2c(ccc3ccccc23)N1` (centres undefined), the “activation” value is inactive: -36.7%.

For the molecule `CC1=C(C(=O)Nc2ccccc2Cl)C(c2cccc(O)c2)n2ncnc2N1` (centres undefined), the “activation” value is inactive: -11%.

As to `Cc1cc(NC(=O)c2ccc3c(c2)N(Cc2cccc(Cl)c2)C(=O)c2ccccc2S3(=O)=O)ccc1Br`, the “activation” value was inactive: -4%.

For the molecule `O=C(CS(=O)(=O)c1cccc2nsnc12)N1CCN(c2ccccc2F)CC1`, the “activation” value is inactive: -7.71%.

`O=C(Nc1ccc(Cl)cc1)C1CCC(CNS(=O)(=O)c2ccc(Br)s2)CC1` (centres undefined): the “activation” value is inactive: -19.3%.

As to `Cc1nn(-c2ccccc2)c(OC(=O)c2ccccc2Br)c1S(=O)(=O)c1ccccc1`, the “activation” value is inactive: -7.29%.

As to `CCCCN(C)CCCNC(=O)C1CCN(S(=O)(=O)CCC)CC1`, the “activation” value was inactive: -4.19%.

For `COc1ccc(-c2cc(C(F)(F)F)nc(SCCC(=O)Nc3ccc(NC(C)=O)cc3)n2)cc1`, the “activation” value is inactive: 23.6%.

With `O=C(Nc1ccccc1C(F)(F)F)c1ncoc1-c1ccco1`, the “activation” value was inactive: -14.8%.

`COCCNc1nc2c(c(=O)n(C)c(=O)n2C)n1Cc1c(F)cccc1Cl`: the “activation” value is inactive: 0.932%.

Regarding `C[C@H]1C[C@H](O)c2ccsc2S1(=O)=O`, the “activation” value is inactive: -10%.

Turning to `CCOc1ccc(CN2C(=O)c3ccccc3Sc3ccc(C(=O)NCc4ccco4)cc32)cc1`, the “activation” value is inactive: -12.8%.

As to `COc1ccc(Cl)cc1NC(=O)CSc1cn(CC(=O)N2CCCCC2)c2ccccc12`, the “activation” value is inactive: -15.8%.

For the molecule `Cc1oc(-c2cccc(Cl)c2)nc1CN1CCC(C(=O)NC(C)c2ccccc2)CC1` (centres undefined), the “activation” value is inactive: -6.96%.

Consider `CCN(CC)c1ccc(CNCCCSc2nnnn2C)cc1`, for which the “activation” value was inactive: -11.2%.

As for `COc1ccc(CNC(=O)c2cc(Nc3ccccc3C)nc3ccccc23)cc1`, the “activation” value is inactive: -14.7%.

For `Cc1nn2c(=O)cc(COC(=O)c3ccc(NC(=O)COc4ccc(C)c(C)c4)cc3)nc2s1`, the “activation” value is inactive: -8.31%.

As to `O=c1n(Cc2ccccc2Cl)c2ccccc2c2nc(-c3ccccc3)nn12`, the “activation” value is inactive: -7.04%.

In the case of `CC(C)NC(=O)c1ccc(Cn2c(SCC(N)=O)nc3ccccc3c2=O)cc1`, the “activation” value was inactive: -14.9%.

Turning to `Cc1ccc(CCNC(=O)c2ccc3nc(N4CCC(C)CC4)sc3c2)cc1`, the “activation” value was inactive: -3.68%.

Regarding `CCOc1ccc(C2CC(=O)Nc3nc(SCc4ccccc4C)[nH]c(=O)c32)cc1OC` (centres undefined), the “activation” value was inactive: -11.1%.

As to `Cc1ccc(C)c(NC(=O)n2ncc3cc(Cl)ccc32)c1`, the “activation” value was inactive: -11.1%.

`COC(=O)C(C)Sc1ccc2nnc(CCNS(=O)(=O)c3ccc(C)cc3)n2n1` (centres undefined): the “activation” value was inactive: -3.98%.

For `COCCCNC(=O)Cn1cnc2sc(C)c(S(=O)(=O)N3CCC(C)CC3)c2c1=O`, the “activation” value was inactive: -31.6%.

For `Cc1ncc(CO)c2c1Oc1nc(-c3ccccc3Cl)nc(SCc3ccccc3F)c1C2`, the “activation” value was inactive: -4.39%.

Take `CCC(Oc1ccccc1-c1nnc(-c2ccccc2)o1)C(=O)Nc1ccc(C(C)=O)cc1` (centres undefined): the “activation” value is inactive: -5.64%.

On to `COC(=O)c1ccc(NC(=O)CSc2ccc(-c3sc(-c4ccccc4)nc3C)nn2)cc1`, for which the “activation” value is inactive: -12.1%.

Regarding `COC(=O)c1cc2oc(C)cc2n1Cc1ccc(Br)cc1F`, the “activation” value is inactive: -9.13%.

For `CCc1ccc(-n2c(=O)c3cccnc3n2CC(=O)NCc2ccccc2)cc1`, the “activation” value is inactive: -11.9%.

As for `COc1cc(Cl)c(C)cc1Nc1nc2ccccc2c2nnc(C)n12`, the “activation” value was inactive: -24.3%.

`O=C(NCc1cccnc1)c1nn(-c2ccc(Cl)cc2)nc1CO`: the “activation” value was inactive: 0.508%.

On to `COc1ccc2nc(N(Cc3cccnc3)C(C)=O)sc2c1`, for which the “activation” value is inactive: -20.6%.

As to `COc1ccc(C2CC(=O)N3CN(C4CCCCC4)CSC3=C2C#N)c(OC)c1` (centres undefined), the “activation” value is inactive: -1.22%.

In the case of `COc1ccccc1C1CC(=O)NC(C)=C1C(=O)OC1CCCCCC1` (centres undefined), the “activation” value is inactive: -5.36%.

Take `O=C(NC1CC(=O)N(c2ccc(F)cc2)C1)c1ccco1` (centres undefined): the “activation” value was inactive: -16.3%.

Consider `COc1ccc(Nc2ncc3c(n2)CCN(Cc2ccccc2C)C3)c(OC)c1`, for which the “activation” value was inactive: -16.1%.

On to `O=C(Nc1cccc(C(F)(F)F)c1)c1ccc2c(c1)nnn2C1CCCC1`, for which the “activation” value is inactive: -0.231%.

Consider `COC(=O)c1c(C)oc2ccc(N(C(=O)c3ccncc3)S(=O)(=O)c3ccc(OC)cc3)cc12`, for which the “activation” value was inactive: -19.4%.

Consider `COc1ccc(S(=O)(=O)NCCc2nnc3ccc(SCC(=O)Nc4ccccc4C)nn23)cc1`, for which the “activation” value is inactive: -4.88%.

With `CCc1ccc(-n2c(=O)c3c4c(sc3n(Cc3ccccc3C#N)c2=O)CCC4)cc1`, the “activation” value is inactive: 16.4%.

In the case of `CN(C)c1ccc(CNS(=O)(=O)c2ccc(-c3cc(C(F)(F)F)on3)s2)cc1`, the “activation” value is inactive: -10.8%.

For `COc1cc2c(cc1OC)CN(C(=O)Nc1ccccc1)CC2`, the “activation” value was inactive: 7.47%.

As for `Cn1cc(CN(C(=O)Nc2ccccc2)C2CCCCC2)c2ccccc21`, the “activation” value is inactive: 3.02%.

With `COc1ccc(-c2nc3sc(CCNC(=O)c4ccco4)c(C)n3n2)cc1`, the “activation” value was inactive: 2.4%.

In the case of `CCS(=O)(=O)Nc1ccc(-c2cn3ccsc3n2)cc1`, the “activation” value is inactive: -15.1%.

For `CCCCn1c(=N)n(CCCOc2ccc(F)cc2)c2ccccc21`, the “activation” value is inactive: -0.358%.

For `COc1ccccc1NC(=O)c1ccc(COc2ccc(C)c(C)c2)o1`, the “activation” value was inactive: -6.77%.
